From the supplement of paper PMC11417369
± gives the standard deviation of the averaged measurements. This is one part of the list.

Each sequence was assayed on PfAP2-LT AP2 domain (GST-tagged) (assay: gcPBM binding intensity (ln(normalized median fluorescence intensity)); higher = stronger DNA binding).
Procedure, shortened: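 GST-fused DNA-binding domains of P. falciparum, expressed in E. coli, were applied at about 25 μg on average for 1 h to an Agilent 4 × 180k array of primer-extended double-stranded 36-bp intergenic genomic probes and negative controls. Binding intensity is the highest Masliner-normalised natural-log median intensity across replicate spots of either probe orientation, measured with Alexa488 anti-GST antibody and a 488 nm scan.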

Row | Sequence | gcPBM binding intensity (ln)
1 | TATTATTCAAAATTTGTGCACAAAATTAAAGGAACA | 8.74 ± 0.42
2 | TTTTTAAATAAATGTTTTTATTATATACATATCAAT [TGCATGCA_negctrl_site423] | 8.49 ± 0.51
3 | AAAATAATGTATATAGTGCAAATGAAAACGAAAAAA [GTGCAC_site9455] | 9.06 ± 0.45
4 | TATTTATATATTTATGCATGTTATAGGCAAAAATGT [TGCATGCA_site397] | 8.47 ± 0.39
5 | TATATTGATGATGATAGTACGTATGAATACAAAAAA [XGTACX_site4] | 8.79 ± 0.53
6 | GTAGATATTTATTGAGTGCATGTTATAAAGGGAAAA [GTGCAC_site9481] | 8.7 ± 0.55
7 | TTTTTTTTATGGAAACGTACATACATACATTAAAGA [XGTACX_site7401] | 8.33 ± 0.38
8 | TTTTTATTTTTTTACAGTACATAAAATAAATAAATA [XGTACX_site6596] | 7.93 ± 0.36
9 | TTCTTTAATACTTATTGTACAATATAATAATCACAA [XGTACX_site6364] | 8.6 ± 0.52
10 | TACTATATAAGTAAGGCATGCATGCCGATTTTTTTA [TGCATGCA_site100] | 8.8 ± 0.39
11 | AAAAAAAAAAAAATATGTACTTATTTTTATGTTAAA [XGTACX_site8802] | 8.26 ± 0.44
12 | TACTTAAAATATTTAACAAATAAATAAATAAATAAA [XGTACX_negctrl_site523] | 8.25 ± 0.55
13 | TGAAACCGTTACATGTGTACATATGTTACACATAAT [XGTACX_site7250] | 8.89 ± 0.32
14 | TTTCTTTTACATATTTGTACATATATAAATTTATAT [XGTACX_site1787] | 8.94 ± 0.38
15 | TCACATCTTATATACTGTACATTTCGAATATAAATT [XGTACX_site2508] | 8.81 ± 0.35
16 | ATATTTTTATTTTCTTTACACACCACATAATTTTTT [CACACA_site4060] | 9.07 ± 0.46
17 | ATTAGATATGTAAACTAAAATTATATTCATGATAAT [TGCATGCA_negctrl_site182] | 8.68 ± 0.42
18 | TCTAACAACATGCGCACACACATGAATATTCATATT [CACACA_site1540] | 9.49 ± 0.32
19 | CATTATCATGTTTTTTGTACTCATAATAAAAAGCAG [XGTACX_site2056] | 8.32 ± 0.41
20 | CAAGGAACCGGACACACACACATAAATGTATTTATA [CACACA_site4574] | 9.54 ± 0.52
21 | TATATATAGAAACACACACACACCAAAGCGTAGCGC [CACACA_site62] | 9.79 ± 0.22
22 | ATTTACAAAAGGAAAGTGCAAACATGTGATTAAACA [CACACA_negctrl_site714] | 8.96 ± 0.45

Row | Sequence | gcPBM binding intensity (ln)
23 | AAAAATGAATTATTTTGTACATATATATATATATAT [XGTACX_site3410] | 9.49 ± 0.19
24 | AATAATTGTTAAAGTTGTACTATACGTATATAAGAA [XGTACX_site1432] | 8.81 ± 0.54
25 | GCCAAAAGGATATGCACACACACACCCATATATATA [CACACA_site2198] | 9.94 ± 0.42
26 | ATTTTAATTACATATACACACAAAGGTTCATAACAA [CACACA_site9008] | 8.81 ± 0.37
27 | TTTTAAAAAAAATATAAAAAAAGAGGAGGGATGGTA [GTGCAC_negctrl_site35] | 8.52 ± 0.47
28 | AATTTTATTACTTTTACACACCTATATATTATTCAT [CACACA_site3273] | 9.19 ± 0.38
29 | ATTATTTTATTATAGTGTACTTTTTTAATCAAAGGA [XGTACX_site8921] | 8.44 ± 0.4
30 | TACTCATAATATTGATAATTAAAAAGATAAACTATT [XGTACX_negctrl_site299] | 8.38 ± 0.35
31 | TAATTTAAACAAAAAAGTACAAATTTCTTTTTATTA [XGTACX_site5244] | 8.12 ± 0.54
32 | TATGTTTTTACGTGTGTGCACTTTGTAGAGATAAGT | 9.06 ± 0.38
33 | AACTTATTTAAATTCACACATATATAAAATACTTAT [CACACA_site4394] | 8.64 ± 0.41
34 | ATAAAGATATGACACACACACATATTATAGATATAT [CACACA_site7434] | 9.71 ± 0.3
35 | ATCAATTTAATTTATTGTACTTGTTTGTTTTTTTAT [XGTACX_site7544] | 8.94 ± 0.38
36 | GATAACATAATATGTTGTACATAAAAATTTTTATCA [XGTACX_site1969] | 8.66 ± 0.41
37 | ACATATGACTATAATACACACTTGTATTATTAATAT [CACACA_site6951] | 8.87 ± 0.38
38 | TTTTTTTTTTTTGATGCACACACCTGAACGAGTTAA [CACACA_site317] | 9.16 ± 0.45
39 | TATTTTTATATATGACGTACTCTACAATTATTAATG [XGTACX_site5818] | 8.67 ± 0.37
40 | AAAATATGTATGTAAAGTACTAATATACAAATTTTT [XGTACX_site5186] | 8.8 ± 0.4
41 | CATATACATCCACATACACACATACACCCATACACA [CACACA_site5038] | 9.66 ± 0.28
42 | TGAAAAGTAAAATACACACACATAATATAATTTATA [CACACA_site1989] | 9.47 ± 0.41
43 | AAAGGATATAGACACACACACACATATATATATATA [CACACA_site2200] | 10.3 ± 0.32
44 | GTTCAAAATATGAACACACACATATAGATTTATATA [CACACA_site7054] | 9.08 ± 0.41
